# Results published in article PMC10726135.
# The list shows a part of the results. At the low end of the ranking the order means little. Measured with an extract: partners may take part in the binding.
# Target: T1, HNF4alpha8 (COS-7 nuclear extract) (UniProt P41235-5)
# T1 sequence: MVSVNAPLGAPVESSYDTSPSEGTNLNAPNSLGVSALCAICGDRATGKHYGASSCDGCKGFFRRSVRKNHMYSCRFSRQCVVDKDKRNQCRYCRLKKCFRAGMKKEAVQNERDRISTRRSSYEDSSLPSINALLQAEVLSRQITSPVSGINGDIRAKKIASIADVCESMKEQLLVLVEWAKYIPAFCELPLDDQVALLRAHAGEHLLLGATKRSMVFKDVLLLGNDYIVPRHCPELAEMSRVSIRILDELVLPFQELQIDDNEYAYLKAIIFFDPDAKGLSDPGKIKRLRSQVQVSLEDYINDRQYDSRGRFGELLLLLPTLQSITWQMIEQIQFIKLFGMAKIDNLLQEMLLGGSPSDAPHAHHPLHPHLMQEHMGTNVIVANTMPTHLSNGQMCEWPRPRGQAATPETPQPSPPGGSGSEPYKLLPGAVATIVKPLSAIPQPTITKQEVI
# Experiment: protein-binding microarray
# Settings: COS-7 nuclear extract on double-stranded Agilent 4x180k PBM; binding buffer, salt, pH and temperature not given; high values mean tight binding; double strand, one strand shown; sequences stand for … in …GCCTAGGGAGATTAGAGTATCGGTCGA
row,Sequence,binding signal (log2 normalized intensity)
1,GGATATTTGATCAAAGGTCAGCTCTCCTTT,5.11
2,CTAGGTAAGCCCACTAGGGAATGAAGCTAA,-1.2
3,CTTAGAATCGAATTGTGAAACTCAGAATCA,-0.796
4,TGCCATGGGCCTGGCTGAGCCTGGGCCGCC,-1.38
5,CCATTGCTTTCTTCCAAGGCTGCAAGCAAA,-1.37
6,AGAATTCCCATCCCACTAGGTGGCGCTGTT,-1.29
7,ACCTTTGCCCTGTTGTCTTTGCCCAAACCA,2.89
8,GATTCTAGGGCCCATGCCCTTAGCCACTGC,0.179
9,CCCTTTGTACCTGGGGCAAACATCAATTTA,1.29
10,CATTTTTTTCCACCCTCCCCTCCCCCTCCT,6.32
11,CTCACGGACCCTGTTACCACACCACAGCGG,-1.29
12,GTTAGGGTGAAGTAAAGTTATACTTCTATG,0.508
13,GAAGCTGCACACATGTCAAAGGTCAAAGGG,6.06
14,GCCTCCATTAATTAACCTTTGAGCTGGGTG,5.22
15,TCTAAGACATAACACAGGTGACCTTTGCTC,8.96
16,ATGCTTCCCAGAAAGAATGAGCGGGAACCT,-1.27
17,ACGAATAATCATATCTGCCTCAGTAGTAGT,1.01
18,TCAAATTCCTGGGCTCAAACAATCCTCCCA,-1.25
19,GGGGGCGAGCATGGCCGCTCCGCGAGGTGA,-1.36
20,ACCATTGCTTCAGCAAAACCAGTTTGTCTG,-1.33
21,CTCTGTTACACAAAATCGCCACTACAAAGG,-1.16
22,GAGCACCTGGATAAGCCAGATAATTTGTGC,-1.05
23,AGTGAGTGAAACATCCCACTCAAAGGTCAG,4.26
24,TGCTTATCTTCTCTTTTACTGTACTTCTTT,1.68
25,ATGAGGGCAGGATGCATGCACTTCATTGTG,0.337

row,Sequence,binding signal (log2 normalized intensity)
1,AAAACAGAATGGTCTGTATTTCAGAGACTA,-0.678
2,TTACTGCAGAGAAGAAGCTTTGCCATTGTT,-0.992
3,CTGACGCCATCTGGCGTCCCCCACCTGGAA,4.47
4,GACCACCTGGTGGACCCAGCTGGTAAGTGC,2.82
5,ATTGGTTGCAGAAGGCAGCCAAACAGAGGC,-1.23
6,AGGATCTGTGTTATGCTTGCAGGTGTCAGG,1.71
7,GAATTTGGACTTTGCACTAAAAGCCATGAG,6.28
8,GACCTGGACTCCCAAGATGGATTGGGTCCA,2.73
9,GGCCCTCAGCTGAGATAGCAGAGTCCAGTG,2.94
10,GGAAGGCAGTAAGAGAGAAAGAAACAGGGG,-1.28
11,TCCAGGAGGTCGCTGGAAAGGCGGCAGGCT,-1.35
12,GGCTCCGATAAACCCAGGCAATGACTCCAA,-1.08
13,CTTGCCATTGGAGGTCACCCTGTGTCAGCG,1.47
14,TAGGAAGCAACAGACTGCTGTGTTACTAGA,-1.26
15,TGAATTGGTCATAATTCTCAAACTTTATGG,1.09
16,TGGCATCCCTGTGGTATTTGCTCTGTCATC,1.39
17,TCCCTGCCAAAGGTCAGAGTTGAACCCTTG,6.06
18,TGTGAGACCGGTTCCGCGGTCCGCAGCGCT,-1.31
19,CCTCCTGAGATAGGTATGATAACCCCCGTC,4.14
20,CTGGTGTTTCCCTGTTTGCTTCTGCCCCCT,5.35
21,GGGTCAACAGACAAATGAAAGAGCTCAAAT,-1.12
22,CTGGTTACTAAACACTTACACCTGGGTGCT,-1.11
23,AGGCAGCCTCAGCCACACGCCCATCTCCAC,-1.36
24,TATCTTCCAGCCCTGTCTCTCAGGTGTAAC,1.84
25,TTTAAACATTCCCACCTAAGACATAAATAT,1.87

row,Sequence,binding signal (log2 normalized intensity)
1,TTGTCAGTGCCCTATACAGACCTTTGTATA,3.82
2,GAGGGGGCAGGACAGCAGGAGTGGGAGAAA,-1.28
3,AGCAGTGTGGACTTTTTCCTGAGGGCAGGA,1.56
4,GAACTCTGACCTTTGCCCCCAGCCTCTCAC,9.22
5,GGTACTGGAAACTGGGCAAGGTCCATTACG,3.56
6,TGGGTTTCGGTGTCATCTAGACCTGGACTT,3.34
7,CACGCCTCAAATGAGCTTTTGATGAGCCTA,-1.4
8,AGATTAGATTGCTCAGAGGCACAGTCTGCT,-1.38
9,GATCCTCACAGTGCCTCTGCAAGTTGGCCT,1.19
10,CTGAGATTCAGAATAGTTAAGTAACGTGTC,0.789
11,GACTCTGAGACCTGTGATGGTCACTATCTG,0.47
12,CTTGCAGGTGTCAGGGGTCAATGTGCACAT,6.01
13,TCATTTGGCTTCCGTGCCTGCATGGGCTGT,-1.22
14,AATGGGCAAAGGTCACAAGAGGTGCTGTGT,5.5
15,GGTCAGCTCATTCCCTAGGGCTCGGCATTC,-1.31
16,TTTCCCTCTGTGCCCGAGCTGTCTTATCTG,0.988
17,TTTAAAGAACTGGGCGAGCCCTCTGATCTG,-1.37
18,TTGTATGTCCAAGGGTCACTCGACATTCAT,3.76
19,TAAGATTCTGGTCAAAGGTCAATGAAGCTC,6.64
20,AAATGTTATCATTACTTCTCAACTGATATG,1.29
21,GAAAGGAGACTAAAGGTCAAAACCACCTAT,3.4
22,TGAGTGGGTTCACTTTGAGCAAGATAATGA,0.945
23,CTGGGCCCCTCGGCCGCTCCCTCCCCTCCT,5.19
24,TCCTGCCTTGGAGAAGTGAACTTTGCCCTC,10.7
25,CCAGCAAACGTTCTTCTCTAACCCTCCTTT,0.922

row,Sequence,binding signal (log2 normalized intensity)
1,GGATGTGGGACTTAATCCTTGTCTGTTTGG,1.49
2,CTAAGAGCCTACTGAGAGGAAAGGGGTTAA,-1.26
3,GCTGATCACTTAAAATGAGACTTCCCAGCT,-1.27
4,ATGGCTAATCAGTATTGAGGCCGGAGGGCA,1.6
5,GGACGGGTAAGAGTCGTGGCCTTGCCATTG,-0.856
6,CAGCCACAAAAACCAAAGGTCACTTCGCAT,4.17
7,GGACTATCCCCGTCCGCGGAAGCACACACG,0.0414
8,TTCCCATTCATAAAATTACGCCACAGAGTT,-1.29
9,GTTGTTTTTAAAAGGCTGCCTTTCCCAGAT,-0.901
10,AAGGGCCCATGGGCTTCAGGGTAAATCCCG,-0.903
11,TGCAGGTAAAACTACATTTCCAAGACCTCT,-1.35
12,CAGCCACATTCCATGAGCTGGCCTCACTAA,-1.5
13,CTATGCCTTGAACTTTAAGGCACCTGCTCT,0.494
14,GAGCTCGCGCCGGGCACTGATAACGCCCGC,-1.35
15,GCTCTCTGCTCTTACCTGCCAAATATTGGG,-1.28
16,CCATACCTCTTGCGTGTTATCTATGGAACA,1.67
17,GTGGTTTGCTACACTGCCAAAGTTCAACCA,3.07
18,GGGGTGGGAGTGCAGAGAGAGAGGGAGACA,-1.31
19,ATCTAACAAGAAGTCTGAAGGCAGGGCTTT,-1.33
20,GTGATACCAGGGGTCATTTTATGGGAAAAC,2.43
21,CCCTCCGCAACCTTTACTCCTTGTGGTCAA,3.06
22,TCTGGGATGTTGGGAGGAGTGGACTTTGAT,6.84
23,CTGGGATATCAGGTATTGCCCAGTATTGAT,0.695
24,CTGTTGGGGAGCAAAGGTTAGCAAGGGCCC,3.47
25,CCATAACCCTCAGCTCCTCTCCTCCATGGC,-0.777

row,Sequence,binding signal (log2 normalized intensity)
1,TTTGTTGCCTCTTTTCTGCTTTTGGAATTT,3.37
2,TTCACATTCCAGTGTTTCAAAGGAGTGTCT,0.818
3,ACCTTGTCCCTGGATTGTGTTGCACTGTTT,2.15
4,CCTCTTGCGTGTTATCTATGGAACATGGAC,2.5
5,GTTTACTCATGTGGTCCTAAGACTGACCTT,4.61
6,AAGTTATCTTGAGACCTCAAGGGGAGAGGA,-1.34
7,AGAGGAAAAAGTCCCTGGTCCCATAGGAAA,-1.28
8,CTCAACACTGGCTTCTCTGGCCTAGTAAGA,-1.3
9,TTTCCAGCAAATCCCAATTCACTGACACAA,-1.3
10,ACATGAGGTAGAGGGACACTGATAACACTG,-1.27
11,TTCTCCTGTGATCTGGATTTTCAGGTTCCC,1.51
12,ACAGCCCTCCAACTATGCTAAGAATGCGAA,-1.27
13,TTAAACACGTTTTATTAGGGGTCAGCAAAG,2.84
14,ACCATGCCTATAAATTGCCTGGCTTCAATA,-0.93
15,CTTAGGTACTTTTCTGTTTGTCTTACTGTG,1.59
16,AGAGAAGGAGCCAGAGCTTTGGGAAAAGTG,-1.26
17,AAGCTCTTTCCCTCCACCAAGTTTCCCACA,2.17
18,TTGAAGTTTTGGCCAACAGAGGGGTCAGAG,2.98
19,TGCAAGGGCAGCTCCGTTTACCTAGAGGCA,-1.44
20,AATTTCTCAGATGCCAGCTAAGATCAGTAG,-1.15
21,TGGCCTTTGGCTGTTCGATGTATACAGTAT,1.64
22,TGACAGCATGTTCGGCTGAGACCTGATCAG,0.596
23,CGGCAGCACAAGGCGGTAGCCATGGCGGAG,-1.42
24,TTCCTTAAGATTAGTTCTTTGTAGGAAGGC,0.665
25,GTCTGCTGCCCAGACACACAATATTATGTT,-0.76

row,Sequence,binding signal (log2 normalized intensity)
1,GGTAGAGTCTAAGGAGGCAGTAAGATAAGG,-1.38
2,CAGAGAAGATTAGCTCACAGGAAAGGAGAC,-1.23
3,GGCGAGTGTGCAATTAGAGCAAAGGTTACT,3.57
4,GTCTTATTCAGCCTCATTGATTTGAACATT,2.69
5,GGAAACCGCGATTAAAAATGGAACAGTAAG,-1.45
6,AGGCTGAAGAAGTTGCTCAGTGTTCCACAG,-1.36
7,AAGACTGCAGCAAAGTCCTCCAACTGCCAC,-1.32
8,GGCAGTGGGACAATGAAGCCTAAATGATAA,-1.38
9,TCTGTAGTGTTGCTCAAGTCTCCTGTTTTC,1.05
10,GATCAAAGGAAACTGCTTGGGCCCCTCCCT,1.56
11,CACCCCACACACACACAGCATTCCATTCAT,1.31
12,TTTGAAGTTTAGAGATGCCTATAGGGTCTT,0.989
13,TCAAGATGAAGCAAGAGTCCAAATTCCTAG,2.77
14,TACCTTTGAAACCTAAGATGTCACAGGCAA,-1.2
15,TAATTAGACAACATCGAAGACTTCATGATA,-1.28
16,CGTGGGCATGCCTCCCAGAGCATTGTTTAT,-0.764
17,GAAGGACGTCAGAACTGTCCTTTAACCTCC,4.8
18,CTGCCTTAGTCCCAGTATGGTCTCAGTAAT,0.518
19,GGAAATGGATTGCCTCCTAAGGCCTCCAGA,-1.34
20,ATCTGGGCCAAGGCAGATATACCAGATAAG,-1.28
